Measured values reported in the supplement of paper PMC9446081.
Screen size: about 39,000 compounds; about 220 (0.56%) showed activity. Some of the results follow.

The compounds below were run on Escherichia coli K-12 BW25113 (assay: relative growth (OD600 normalised to plate interquartile mean) (fraction); higher = less growth inhibition, active = 0.2 or less). Conditions: 50 µM; LB; incubation time: overnight (16-24 h).
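Also: static incubation at 37 °C against the wild-type strain, values averaged over two biological replicates.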

Row | Compound | relative growth
1 | Cc1noc(C)c1S(=O)(=O)N(C)C[C@@H]1OCc2cnnn2CCCC(=O)N([C@H](C)CO)C[C@@H]1C | inactive: 1.01
2 | COc1ccc(NC(=O)Nc2cccc3c2O[C@H](CN(C)C(=O)Nc2cccc4ccccc24)[C@@H](C)CN([C@@H](C)CO)C3=O)cc1 | inactive: 1.03
3 | COc1cc(O)c2c(c1)C(=O)c1cc(C)cc(O)c1C2=O | inactive: 0.982
4 | C[C@H]1CN([C@@H](C)CO)C(=O)c2cccc(NC(=O)c3nc4ccccc4s3)c2O[C@H]1CN(C)C(=O)Nc1ccc(F)cc1 | inactive: 1.04
5 | Nc1nc(Cl)nc2c1ncn2[C@H]1C[C@@H](O)[C@@H](CO)O1 | inactive: 0.961
6 | CC(=O)N1CCc2nc(C(N)=O)sc2CC1 | inactive: 1.01
7 | C[C@H](CO)N1C[C@H](C)[C@H](CN(C)Cc2ccc(Oc3ccccc3)cc2)Oc2ccc(NC(=O)Nc3ccc4c(c3)OCO4)cc2CC1=O | inactive: 1.04
8 | O=C(C[C@@H]1C[C@H]2c3cc(NS(=O)(=O)c4ccccc4)ccc3O[C@H]2[C@H](CO)O1)NC1CCCCC1 | inactive: 1
9 | Cc1noc(C)c1NC(=O)Nc1ccc2c(c1)C(=O)N([C@@H](C)CO)C[C@@H](C)[C@@H](CN(C)C(=O)Nc1ccc(F)cc1)OCCCC[C@@H](C)O2 | inactive: 1.01
10 | COCCNC(=O)C[C@@H]1CC[C@H]2[C@@H](COC[C@H](O)CN2S(=O)(=O)c2ccccc2C)O1 | inactive: 0.98
11 | C[C@@H]1CCCCO[C@@H](CN(C)S(=O)(=O)c2cccs2)[C@H](C)CN([C@@H](C)CO)C(=O)c2cc(NC(=O)Nc3cccc4ccccc34)ccc2O1 | inactive: 1.03
12 | CCOC(=O)n1ccn(C)c1=S | inactive: 1.09
13 | COCC(=O)NS(=O)(=O)c1ccccc1 | inactive: 1.01
14 | C[C@H](CO)N1C[C@H](C)[C@H](CN(C)S(=O)(=O)c2ccc(C#N)cc2)Oc2ncc(C#Cc3ccc(F)cc3)cc2C1=O | inactive: 0.98
15 | COc1ccc(CN(C)C[C@H]2Oc3ccc(NS(=O)(=O)c4cn(C)cn4)cc3C(=O)N([C@@H](C)CO)C[C@@H]2C)cc1 | inactive: 1.01
16 | CCOC(=O)c1cc2c(c(-c3cccc(-c4cccc(OC)c4)c3)n1)[C@H](CCO)N(S(=O)C(C)(C)C)C2 (stereo not given in full) | inactive: 1.03
17 | C[C@H]1CCCCO[C@@H](CN(C)CC2CCCCC2)[C@@H](C)CN([C@@H](C)CO)C(=O)c2cc(NC(=O)Nc3cccc4ccccc34)ccc2O1 | inactive: 0.969
18 | Cc1noc(C)c1S(=O)(=O)N(C)C[C@@H]1Oc2ccc(NS(=O)(=O)c3ccc(F)cc3)cc2CC(=O)N([C@@H](C)CO)C[C@H]1C | inactive: 1.01
19 | C[C@@H]1CN([C@H](C)CO)C(=O)c2cc(NC(=O)Nc3ccc4c(c3)OCO4)ccc2O[C@@H]1CN(C)S(C)(=O)=O | inactive: 0.994
20 | Cc1ncsc1-c1ccc(CNC(=O)[C@@H]2C[C@@H](O)CN2C(=O)[C@H](C(C)C)N2Cc3ccccc3C2=O)cc1 | inactive: 1.02

Row | Compound | relative growth
21 | O=C(C[C@@H]1CC[C@H](NC(=O)c2cccnc2)[C@H](CO)O1)NCCN1CCCCC1 | inactive: 0.985
22 | Cc1noc(C)c1S(=O)(=O)N(C)C[C@H]1OCCCC[C@H](C)Oc2ccc(NC(=O)Nc3cccc4ccccc34)cc2C(=O)N([C@H](C)CO)C[C@@H]1C | inactive: 1.01
23 | Cc1ccc(S(=O)(=O)N(C)C[C@@H]2Oc3c(NS(=O)(=O)c4ccccc4)cccc3C(=O)N([C@H](C)CO)C[C@H]2C)cc1 | inactive: 0.996
24 | C[C@H]1CN([C@@H](C)CO)C(=O)c2cc(NC(=O)Nc3ccccc3)ccc2O[C@H]1CN(C)S(C)(=O)=O | inactive: 0.99
25 | C[C@@H]1CN([C@H](C)CO)C(=O)c2c(c3ccccc3n2C)-c2ccccc2CO[C@@H]1CN(C)C(=O)Nc1ccccc1 | inactive: 1.02
26 | C[C@@H]1CN([C@@H](C)CO)C(=O)CCCn2cc(nn2)CO[C@H]1CN(C)S(=O)(=O)c1cccc(C#N)c1 | inactive: 1.01
27 | COc1ccc(S(=O)(=O)N(C)C[C@H]2OCCCC[C@H](C)Oc3ccc(NC(=O)Nc4ccc5c(c4)OCO5)cc3C(=O)N([C@H](C)CO)C[C@@H]2C)cc1 | inactive: 1.03
28 | Cc1noc(C)c1S(=O)(=O)N(C)C[C@H]1Oc2ccc(NC(=O)Nc3ccc4c(c3)OCO4)cc2CC(=O)N([C@H](C)CO)C[C@H]1C | inactive: 1.01
29 | O=C(C[C@H]1CC[C@@H]2[C@H](COC[C@H](O)CN2C(=O)c2ccccc2)O1)N1CCOCC1 | inactive: 0.984
30 | CC(C)NC(=O)N(C)C[C@@H]1Oc2cc(-c3ccccc3F)ccc2S(=O)(=O)N([C@H](C)CO)C[C@@H]1C | inactive: 1.02
31 | O=C1N[C@@H](Cc2c[nH]c3ccccc23)COC(=O)[C@H](Cc2ccc(F)cc2)CCC=CC[C@@H]1CC(=O)N(CCO)Cc1ccccc1 | inactive: 1.01
32 | C[C@@H]1CN([C@H](C)CO)C(=O)c2c(c3ccccc3n2C)-c2ccccc2CO[C@H]1CN(C)C(=O)Nc1ccc(F)cc1 | inactive: 1.03
33 | CCOc1nc2c(ncn2C)c(=O)n1C | inactive: 0.938
34 | C[C@H]1CN([C@@H](C)CO)C(=O)Cc2cc(NS(=O)(=O)c3cn(C)cn3)ccc2O[C@@H]1CN(C)S(C)(=O)=O | inactive: 1.02
35 | C[C@H](CO)N1C[C@H](C)[C@H](CN(C)Cc2ccc(C(=O)Nc3ccccc3N)cc2)OCCCC[C@H](C)Oc2ccc(NC(=O)C3CCCCC3)cc2C1=O | inactive: 1.01
36 | COc1ccc(CNCC(=O)O)cc1 | inactive: 1.03
37 | CCOC(=O)c1c(C)c(Cl)c(O)c(Cl)c1O | inactive: 1.01
38 | O=C(C1=C[C@H](c2csc3ccccc23)C[C@H](OCc2ccc(CO)cc2)O1)N1CCN(Cc2ccc3c(c2)OCO3)CC1 | inactive: 1.02
39 | Cc1ccc(S(=O)(=O)N(C)C[C@H]2OCCCC[C@@H](C)Oc3ccc(NS(=O)(=O)c4ccc(F)cc4)cc3C(=O)N([C@@H](C)CO)C[C@H]2C)cc1 | inactive: 1.01
40 | CN1CCN(C(=O)CNS(=O)(=O)c2ccccc2)CC1 | inactive: 0.998
